Source: patent US7517874B2 (priority 2007, dated 2009)
Like-named read-outs stand apart in the source and are kept apart here.

Biological target: human CB2 receptor (hCB2) (Homo sapiens, UniProt P34972)
Test: cell-based
Assay type: cell-based
Conditions: for +/− HCB2: agonist or inverse agonist at hCB2
[1] = groups >100 nM-10 μM and >10 μM, cAMP, CHO-K1 hCB2, read-out: EC50 HCB2

Chain of human CB2 receptor (hCB2) (P34972 whole entry): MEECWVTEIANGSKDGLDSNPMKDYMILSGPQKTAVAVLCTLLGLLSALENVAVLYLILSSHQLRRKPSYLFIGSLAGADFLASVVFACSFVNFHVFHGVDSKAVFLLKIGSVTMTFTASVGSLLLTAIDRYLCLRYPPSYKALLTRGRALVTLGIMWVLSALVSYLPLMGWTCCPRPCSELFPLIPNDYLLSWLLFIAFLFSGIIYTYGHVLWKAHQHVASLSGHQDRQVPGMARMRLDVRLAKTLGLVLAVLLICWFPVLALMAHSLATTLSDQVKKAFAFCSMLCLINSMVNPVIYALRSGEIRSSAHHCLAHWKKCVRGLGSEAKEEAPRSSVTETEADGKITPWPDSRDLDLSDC

## CN1CCn2c(-c3ccccc3)nc(C(=O)NC3(CO)CCCC3)c2C1 [Compound 235, N-(1-(hydroxymethyl)cyclopentyl)-7-methyl-3-phenyl-5,6,7,8-tetrahydroimidazo[1,5-a]pyrazine-1-carboxamide]
  EC50: > 10000 nM

## O=C(c1nc(-c2ccccc2)n2c1CN(S(=O)(=O)c1ccc(F)cc1)CC2)N1CCOCC1 [Compound 105, (7-(4-fluorophenylsulfonyl)-3-phenyl-5,6,7,8-tetrahydroimidazo[1,5-a]pyrazine-1-yl)(morpholino)methanone]
[1]
  EC50: > 10000 nM

## C[C@H](NC(=O)c1nc(-c2ccccc2)n2c1CN(C)CC2)C(C)(C)C [Compound 51, (S)-N-(3,3-dimethylbutan-2-yl)-7-methyl-3-phenyl-5,6,7,8-tetrahydroimidazo[1,5-a]pyrazine-1-carboxamide]
  +/− HCB2: +

## CN1CCn2c(-c3ccccc3)nc(C(=O)N3CCOCC3)c2C1 [Compound 69, (7-methyl-3-phenyl-5,6,7,8-tetrahydroimidazo[1,5-a]pyrazin-1-yl)(morpholino)methanone]
[1]
  EC50: > 10000 nM

## CNC(=O)[C@@H](NC(=O)c1nc(/C=C/CCO)n2c1CN(C)CCC2)C(C)(C)C [Compound 514, (S,E)-N-(3,3-dimethyl-1-(methylamino)-1-oxobutan-2-yl)-3-(4-hydroxybut-1-enyl)-8-methyl-6,7,8,9-tetrahydro-5H-imidazo[1,5-a][1,4]diazepine-1-carboxamide]
  +/− HCB2: +

## CC(C)CCNC(=O)c1nc(-c2ccc(Cl)cc2)n2c1CN(CC(C)C)CC2 [Compound 157, 3-(4-chlorophenyl)-7-isobutyl-N-isopentyl-5,6,7,8-tetrahydroimidazo[1,5-a]pyrazine-1-carboxamide]
  +/− HCB2: −

## CNC(=O)[C@H](CC(C)C)NC(=O)c1nc(-c2ccc(F)cc2F)n2c1CN(C)CCC2 [Compound 534, (S)-3-(2,4-difluorophenyl)-8-methyl-N-(4-methyl-1-(methylamino)-1-oxopentan-2-yl)-6,7,8,9-tetrahydro-5H-imidazo[1,5-a][1,4]diazepine-1-carboxamide]
  +/− HCB2: +

## CNC(=O)[C@@H](NC(=O)c1nc(-c2ccccc2)n2c1CN(S(C)(=O)=O)CC2)C(C)(C)C [Compound 92, (S)-N-(3,3-dimethyl-1-(methylamino)-1-oxobutan-2-yl)-7-(methylsulfonyl)-3-phenyl-5,6,7,8-tetrahydroimidazo[1,5-a]pyrazine-1-carboxamide]
  +/− HCB2: +

## C[C@@H](NC(=O)c1nc(-c2ccccc2)n2c1CN(C)CC2)C(C)(C)C [Compound 50, (R)-N-(3,3-dimethylbutan-2-yl)-7-methyl-3-phenyl-5,6,7,8-tetrahydroimidazo[1,5-a]pyrazine-1-carboxamide]
  +/− HCB2: +

## CC(C)NC(=O)[C@@H](NC(=O)c1nc(-c2ccccc2)n2c1CN(C)CCC2)C(C)(C)C [Compound 472, (S)-N-(1-(isopropylamino)-3,3-dimethyl-1-oxobutan-2-yl)-8-methyl-3-phenyl-6,7,8,9-tetrahydro-5H-imidazo[1,5-a][1,4]diazepine-1-carboxamide]
  +/− HCB2: +

## CNC(=O)[C@@H](NC(=O)c1nc(-c2cc(OC)cc(C(F)(F)F)c2)n2c1CN(C)CCC2)C(C)(C)C [Compound 418, (S)-N-(3,3-dimethyl-1-(methylamino)-1-oxobutan-2-yl)-3-(3-methoxy-5-(trifluoromethyl)phenyl)-8-methyl-6,7,8,9-tetrahydro-5H-imidazo[1,5-a][1,4]diazepine-1-carboxamide]
  +/− HCB2: +

## CNC(=O)[C@@H](NC(=O)c1nc(-c2ccc(-c3ccccc3)c(F)c2)n2c1CN(C)CCC2)C(C)(C)C [Compound 419, (S)-N-(3,3-dimethyl-1-(methylamino)-1-oxobutan-2-yl)-3-(2-fluorobiphenyl-4-yl)-8-methyl-6,7,8,9-tetrahydro-5H-imidazo[1,5-a][1,4]diazepine-1-carboxamide]
  EC50: > 10000 nM

## O=C(Nc1ccccc1)c1nc(-c2ccccc2)n2c1CNCC2 [Compound 41, N,3-diphenyl-5,6,7,8-tetrahydroimidazo[1,5-a]pyrazine-1-carboxamide]
[1]
  EC50: > 10000 nM

## CNC(=O)[C@@H](NC(=O)c1nc(C2=CCC3(CC2)OCCO3)n2c1CN(C)CCC2)C(C)(C)C [Compound 448, (S)-N-(3,3-dimethyl-1-(methylamino)-1-oxobutan-2-yl)-8-methyl-3-(1,4-dioxaspiro[4.5]dec-7-en-8-yl)-6,7,8,9-tetrahydro-5H-imidazo[1,5-a][1,4]diazepine-1-carboxamide]
  +/− HCB2: +

## CNC(=O)[C@@H](NC(=O)c1nc(C2CCNCC2)n2c1CN(C)CCC2)C(C)(C)C [Compound 503]
  +/− HCB2: +

## O=C(Nc1ccccc1)c1nc(-c2ccccc2)n2c1CN(C(=O)C1CC1)CC2 [Compound 129, 7-(cyclopropanecarbonyl)-N,3-diphenyl-5,6,7,8-tetrahydroimidazo[1,5-a]pyrazine-1-carboxamide]
[1]
  EC50: > 10000 nM

## CNC(=O)[C@@H](NC(=O)c1nc(-c2cccc3ccccc23)n2c1CN(C)CCC2)C(C)(C)C [Compound 417, (S)-N-(3,3-dimethyl-1-(methylamino)-1-oxobutan-2-yl)-8-methyl-3-(naphthalen-1-yl)-6,7,8,9-tetrahydro-5H-imidazo[1,5-a][1,4]diazepine-1-carboxamide]
  EC50: > 10000 nM

## CNC(=O)[C@@H](NC(=O)c1nc(-c2ccccc2C(F)(F)F)n2c1CN(C)CC2)C(C)(C)C [Compound 255, (S)-N-(3,3-dimethyl-1-(methylamino)-1-oxobutan-2-yl)-7-methyl-3-(2-(trifluoromethyl)phenyl)-5,6,7,8-tetrahydroimidazo[1,5-a]pyrazine-1-carboxamide]
  EC50: > 10000 nM

## CN1CCCn2c(-c3cc(Cl)c(F)cc3F)nc(C(=O)N[C@@H](CC(C)(C)C)C(N)=O)c2C1 [Compound 591, (S)-N-(1-amino-4,4-dimethyl-1-oxopentan-2-yl)-3-(5-chloro-2,4-difluorophenyl)-8-methyl-6,7,8,9-tetrahydro-5H-imidazo[1,5-a][1,4]diazepine-1-carboxamide]
  +/− HCB2: +

## CNC(=O)[C@@H](NC(=O)c1nc(C=C(C)C)n2c1CN(C)CCC2)C(C)(C)C [Compound 377, (S)-N-(3,3-dimethyl-1-(methylamino)-1-oxobutan-2-yl)-8-methyl-3-(2-methylprop-1-enyl)-6,7,8,9-tetrahydro-5H-imidazo[1,5-a][1,4]diazepine-1-carboxamide]
  +/− HCB2: +

## CNC(=O)[C@@H](NC(=O)c1nc(-c2ccc(Cl)cc2)n2c1CN(C)CC2)C(C)(C)C [Compound 49, (S)-3-(4-chlorophenyl)-N-(3,3-dimethyl-1-(methylamino)-1-oxobutan-2-yl)-7-methyl-5,6,7,8-tetrahydroimidazo[1,5-a]pyrazine-1-carboxamide]
  +/− HCB2: +

## CNC(=O)[C@@H](NC(=O)c1nc(-c2cc(C)ccc2F)n2c1CN(C)CC2)C(C)(C)C [Compound 251, (S)-N-(3,3-dimethyl-1-(methylamino)-1-oxobutan-2-yl)-3-(2-fluoro-5-methylphenyl)-7-methyl-5,6,7,8-tetrahydroimidazo[1,5-a]pyrazine-1-carboxamide]
  +/− HCB2: +

## CNC(=O)[C@@H](NC(=O)c1nc(C(O)C2CC2)n2c1CN(C)CC2)C(C)(C)C (stereo partly drawn) [Compound 296, 3-(cyclopropyl(hydroxy)methyl)-N-((S)-3,3-dimethyl-1-(methylamino)-1-oxobutan-2-yl)-7-methyl-5,6,7,8-tetrahydroimidazo[1,5-a]pyrazine-1-carboxamide]
  +/− HCB2: +

## CNC(=O)[C@H](CC(C)C)NC(=O)c1nc(-c2cc(Cl)c(F)cc2F)n2c1CN(C)CCC2 [Compound 539, (S)-3-(5-chloro-2,4-difluorophenyl)-8-methyl-N-(4-methyl-1-(methylamino)-1-oxopentan-2-yl)-6,7,8,9-tetrahydro-5H-imidazo[1,5-a][1,4]diazepine-1-carboxamide]
  +/− HCB2: +

## CN1CCn2c(-c3ccc(Cl)cc3F)nc(C(=O)Nc3ccc(S(N)(=O)=O)cc3)c2C1 [Compound 208, 3-(4-chloro-2-fluorophenyl)-7-methyl-N-(4-sulfamoylphenyl)-5,6,7,8-tetrahydroimidazo[1,5-a]pyrazine-1-carboxamide]
  EC50: > 10000 nM

## CNC(=O)[C@H](CC(C)(C)C)NC(=O)c1nc(-c2cc(F)ccc2F)n2c1CN(C)CCC2 [Compound 553, (S)-3-(2,5-difluorophenyl)-N-(4,4-dimethyl-1-(methylamino)-1-oxopentan-2-yl)-8-methyl-6,7,8,9-tetrahydro-5H-imidazo[1,5-a][1,4]diazepine-1-carboxamide]
  EC50: > 10000 nM

## CNC(=O)[C@@H](NC(=O)c1nc(C2CCCC2)n2c1CN(C)CC2)C(C)(C)C [Compound 303, (S)-3-cyclopentyl-N-(3,3-dimethyl-1-(methylamino)-1-oxobutan-2-yl)-7-methyl-5,6,7,8-tetrahydroimidazo [1,5-a]pyrazine-1-carboxamide]
  +/− HCB2: +

## CNC(=O)[C@@H](NC(=O)c1nc(-c2ccccc2)n2c1CN(C(C)C)CCC2)C(C)(C)C [Compound 319, (S)-N-(3,3-dimethyl-1-(methylamino)-1-oxobutan-2-yl)-8-isopropyl-3-phenyl-6,7,8,9-tetrahydro-5H-imidazo[1,5-a][1,4]diazepine-1-carboxamide]
  +/− HCB2: +

## CNC(=O)[C@@H](NC(=O)c1nc(-c2ccc(Cl)cc2F)n2c1CN(C(=O)OC(C)(C)C)CCC2)C(C)(C)C [Compound 313]
  EC50: > 10000 nM

## CCS(=O)(=O)N1CCn2c(-c3ccc(Cl)cc3)nc(C(=O)NCCC(C)C)c2C1 [Compound 116, 3-(4-chlorophenyl)-7-(ethylsulfonyl)-N-isopentyl-5,6,7,8-tetrahydroimidazo[1,5-a]pyrazine-1-carboxamide]
  EC50: > 10000 nM

## CNC(=O)[C@@H](NC(=O)c1nc(CCCN2CCCC2)n2c1CN(C)CCC2)C(C)(C)C [Compound 502, (S)-N-(3,3-dimethyl-1-(methylamino)-1-oxobutan-2-yl)-8-methyl-3-(3-(pyrrolidin-1-yl)propyl)-6,7,8,9-tetrahydro-5H-imidazo[1,5-a][1,4]diazepine-1-carboxamide]
  +/− HCB2: +
